# Laboratory results published in paper PMC6919601, “Identification of Plasmodium dipeptidyl aminopeptidase allosteric inhibitors by high throughput screening” (PLoS ONE, 2019).
# About 230 (0.21%) of roughly 110,000 compounds showed an effect of 50% or more. This is one part of the list.
# Molecular target: DPAP1 (Plasmodium falciparum, UniProt Q8IIJ9)
# Assay: primary screen, percent inhibition; read by cleavage of a fluorogenic dipeptide substrate; higher = more effect of the substance
# Design: species or system P. falciparum D10 trophozoite lysates; single well
# 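Further: 30 min substrate incubation versus DMSO and 10 µM JCP410 controls.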
# Chain of DPAP1 (Q8IIJ9 whole entry, looked up): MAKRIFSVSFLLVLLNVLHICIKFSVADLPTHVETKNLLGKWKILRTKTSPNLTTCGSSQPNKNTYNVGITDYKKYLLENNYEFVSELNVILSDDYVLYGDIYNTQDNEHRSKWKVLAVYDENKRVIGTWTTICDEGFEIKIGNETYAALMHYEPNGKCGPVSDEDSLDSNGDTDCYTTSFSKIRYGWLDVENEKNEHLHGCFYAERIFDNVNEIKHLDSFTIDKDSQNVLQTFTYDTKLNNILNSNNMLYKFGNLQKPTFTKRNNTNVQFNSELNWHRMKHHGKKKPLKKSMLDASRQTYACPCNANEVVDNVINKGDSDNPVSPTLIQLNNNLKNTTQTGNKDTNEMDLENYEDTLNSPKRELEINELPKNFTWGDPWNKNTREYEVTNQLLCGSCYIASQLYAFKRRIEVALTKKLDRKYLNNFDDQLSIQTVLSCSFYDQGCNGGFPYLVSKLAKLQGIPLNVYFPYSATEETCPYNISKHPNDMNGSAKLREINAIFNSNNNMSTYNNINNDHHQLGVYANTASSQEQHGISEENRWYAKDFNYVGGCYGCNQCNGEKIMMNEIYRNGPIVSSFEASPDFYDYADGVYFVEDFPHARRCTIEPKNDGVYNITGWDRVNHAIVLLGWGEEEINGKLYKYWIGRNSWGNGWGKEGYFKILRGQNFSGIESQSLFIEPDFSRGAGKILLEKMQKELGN
row,SMILES,% Inhibition @ 10 uM [%]
1,COC1CCCCC1NC1CCCCC1 (stereo not drawn),-3.35
2,COC(=O)C1=CNC=C(C(=O)OC)C1c1cccc(OC)c1OC,12
3,Cc1ccsc1CCNS(=O)(=O)c1ccc2[nH]c3c(c2c1)CCCC3,-6.17
4,O=C(O)CCC(=O)N1CCc2ccccc21,1.33
5,CC1=CC2=NC(=O)/C(=C\c3ccc(OCCCOc4ccc(C)cc4)cc3)C(=N)N2O1,-1.43
6,O=S(=O)(Nc1ccc2c(c1)OCO2)c1ccc(Cl)cc1,4.16
7,COc1ccc(C=O)cc1Cn1cnc2c(cnn2C)c1=O,-2.41
8,O=C(CC(NCc1ccccc1)C(=O)O)NC1CCCCC1 (stereo not drawn),0.426
9,CCOC(=O)c1c(S(=O)(=O)NCCC2=CCCCC2)c(C)n(C)c1C,2.6
10,COc1cc(NC(=O)c2cc(Br)ccc2OC)c(C(=O)O)cc1OC,-1.6
11,Cc1ccc(-n2c(C)cc(C(=O)C(=O)Nc3nnc(-c4cccnc4)s3)c2C)cc1,3.92
12,COc1ccc(OC)c(Nc2nc(-c3c(C)nc4ccccn34)cs2)c1,-4.82
13,CCN(Cc1ccccc1)Cc1ccco1,-1.78
14,CCc1nnc(NS(=O)(=O)c2ccc(NC(=O)c3ccc(OC)cc3)cc2)s1,-3.93
15,COc1cc2c(cc1OC)C1C(C(=O)NCC3CCCO3)c3ccccc3C(=O)N1CC2 (stereo not drawn),0.559
16,Cc1ccc(-c2c3c(nc4sc(C(=O)c5ccc(Cl)cc5)c(N)c24)CCCC3)o1,-1.05
17,CC1(C)CC2CC(C)(CN2c2nc(-c3ccco3)cc(C(F)(F)F)n2)C1 (stereo not drawn),-3.79
18,O=C(c1cc2c(Cl)ccc3c2n1CCO3)N1CCC2(CC1)OCCO2,0.967
19,CCOc1ccc(C(=O)NC(C)c2ccccc2)cc1 (stereo not drawn),2.36
20,CCc1nnc(NC(=O)COc2cc(C)c(Cl)c(C)c2)s1,10.6
21,CN(C)c1ccc(NC(=O)C23CC4CC(C2)CC(n2cnc(Cl)n2)(C4)C3)cc1,-0.305
22,COC(=O)c1cc(S(=O)(=O)NCC2CCN(CCc3cccc(OC)c3)CC2)c[nH]1,3.27

row,SMILES,% Inhibition @ 10 uM [%]
1,CC(C)CC(C(=O)NCCc1c[nH]c2ccccc12)N1Cc2ccccc2C1=O (stereo not drawn),0.297
2,COc1cccc(N/C(=N/C(=O)c2ccccc2)Nc2nc(C)cc(C)n2)c1,2.98
3,CN(C)CCN(C)C1CCc2ccccc2C1 (stereo not drawn),-0.0953
4,Cn1c(=O)[nH]c(=O)c2c1nc(CN1CCOCC1)n2CCc1ccccc1,-2.92
5,COc1ccc2[nH]cc(CCN3C(=O)c4ccccc4C3=O)c2c1,1.54
6,COCCNC(=O)CN(c1cccc(Br)c1)S(=O)(=O)c1ccccc1,0.635
7,COc1ccc(C(=O)C2=C(O)C(=O)N(Cc3ccco3)C2c2cccnc2)cc1 (stereo not drawn),-8.53
8,CCc1nnc(NS(=O)(=O)c2ccc(NC(=S)NC(=O)/C=C/c3ccccc3)cc2)s1,-3.16
9,CCn1cc(CCC(=O)NCc2ccccc2Cl)c2ccccc21,-7.02
10,CCCC1NCCn2cccc21 (stereo not drawn),0.716
11,O=[N+]([O-])c1ccccc1C1=Nc2ccccc2C(c2ccccc2)(c2ccccc2)O1,2.94
12,Cc1ccc2[nH]c(Cc3nn[nH]n3)nc2c1,3.01
13,O=C1NC(c2ccncc2)Nc2sc3c(c21)CCCC3 (stereo not drawn),8.82
14,CCO/C(O)=C1/C(C)=Nc2ncnn2C1c1ccncc1 (stereo not drawn),1.63
15,O=C(CC1CCCC1)Nc1noc2ccccc12,5.29
16,CN1CCN(C(=O)c2cc3nc(-c4ccccc4)cc(C(F)(F)F)n3n2)CC1,-1.66
17,N#Cc1c(C(F)(F)F)cc(-c2cccs2)nc1SCC(=O)O,9.42
18,CCOc1ccc(C2CC(=O)N3C(=C2C#N)SCC3(O)c2ccco2)cc1OC (stereo not drawn),1.64
19,CCN(CC)CCn1c2ccccc2c2nc3ccccc3nc21,0.606
20,CCc1ccc(NS(=O)(=O)c2ccc(Cl)cc2)cc1,0.247
21,O=C(NCC(O)c1ccccc1)c1ccc(Cl)cc1 (stereo not drawn),-3.88
22,Cc1cc(C)c(C)c(S(=O)(=O)NCCCN2CCOCC2)c1C,1.28

row,SMILES,% Inhibition @ 10 uM [%]
1,CCOC(=O)c1ccc(S(=O)(=O)N2CCC(N3CCCCC3)CC2)cc1,-0.671
2,c1ccc(CCCN2CCC(N3CCCCC3)CC2)cc1,0.273
3,O=S(=O)(c1ccccc1)c1nnn2c1nc(N1CCOCC1)c1ccccc12,-3.08
4,CC(=O)Nc1ccc(Cl)c(-c2nc3ncccc3o2)c1,2.05
5,O=S(=O)(NCCCc1ccccc1)c1cccc2nsnc12,3.05
6,Cc1nnc(NC(=O)CSc2nc(O)c3cnn(-c4ccccc4)c3n2)s1,0.208
7,O=C(C1CCN(S(=O)(=O)c2cccc3nsnc23)CC1)N1CCOCC1,1.9
8,CCn1c(Sc2ncnc3ccccc23)nc2ccccc21,-4.91
9,Cc1occc1-c1nnc(O)o1,-6.56
10,Cc1ccc(-n2cnnn2)cc1Cl,1.67
11,CCn1c(C)c(C2N3CC4(C(C)C)CN2CC(C(C)C)(C3)C4=O)c2ccccc21 (stereo not drawn),2.05
12,O=C(Cn1cnc2c(nnn2Cc2ccccc2F)c1=O)N1CCOCC1,4.41
13,CCN1CN(Cc2ccco2)CNC1=S,1.52
14,COC(=O)C1=C(C)NC(=O)NC1c1c(O)ccc2ccccc12 (stereo not drawn),-2.66
15,C=CC(=O)N1C(C)CCCC1C(=O)O (stereo not drawn),-1.47
16,CC(C)(C)C(=O)Nc1ccccc1C(O)c1ccccc1 (stereo not drawn),-2.19
17,CC(=O)N1CCc2nc3sc(C(=O)Nc4cccc(C#N)c4)c(N)c3c(C(F)(F)F)c2C1,0.235
18,O=C(NCC1CCCO1)C1c2ccccc2C(=O)N(C2CCCC2)C1c1cccs1 (stereo not drawn),-4.99
19,O=C(O)CCCCCn1c(SCC(=O)NCC2CCCO2)nc2ccsc2c1=O (stereo not drawn),-0.975
20,O=C(CCNS(=O)(=O)c1cccc2nsnc12)N(CCc1ccccc1)Cc1ccccc1,-7.43
21,COc1ccc(C2N=C(N)N=C(N)N2c2ccc(C)cc2)cc1 (stereo not drawn),0.177
22,CC(=O)Nc1ccc(C2=CSC3=NCCN23)cc1,3
